# Test results reported in the supplement of paper PMC12067230.
# Single values of this set are uncertain.
# Assay: amyloid nucleation score relative to library mode (yeast Sup35 reporter selection) (log enrichment difference); higher = more amyloid nucleation; sequences are the first 22 residues of the Bri2 peptide extended by up to 12 random residues
# Settings: random library (experiment): 1;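 active = nucleation score significantly above 0 at FDR 0.05; inactive = not significantly above 0 or absent from output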
# 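Further: [psi-pin-] Saccharomyces cerevisiae expressing SupN fusions, induced by 100 µM Cu2SO4, selected 7 d at 30 °C without adenine and uracil, scored by deep sequencing of output versus input.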
row,Sequence,amyloid nucleation score
1,EASNCFAIRHFENKFAVETLICNLCFTVPKVRLF,inactive
2,EASNCFAIRHFENKFAVETLICRVLSHV,1.79
3,EASNCFAIRHFENKFAVETLICREQRRAPWTSRR,inactive
4,EASNCFAIRHFENKFAVETLICRYLSCSFHYPWA,inactive
5,EASNCFAIRHFENKFAVETLICLAPGASCTEWG,6.16
6,EASNCFAIRHFENKFAVETLICIGFGWPRRARRG,8.32
7,EASNCFAIRHFENKFAVETLICRCLFDRMIREVL,inactive
8,EASNCFAIRHFENKFAVETLICDLDSG,0.864
9,EASNCFAIRHFENKFAVETLICLLGPWSSKSSYG,6.15
10,EASNCFAIRHFENKFAVETLICHARRGLNSWLGS,inactive
11,EASNCFAIRHFENKFAVETLICASVQYCRRKMTL,inactive
12,EASNCFAIRHFENKFAVETLICHRGVSNNYLIAW,inactive
13,EASNCFAIRHFENKFAVETLICLGIYITAVVHVH,0.435
14,EASNCFAIRHFENKFAVETLICADQRVVEVRGTT,inactive
15,EASNCFAIRHFENKFAVETLICCNYALASSDTRL,8.45
16,EASNCFAIRHFENKFAVETLICYMLLMTTCLTEL,inactive
17,EASNCFAIRHFENKFAVETLICGHLSCMMVCCQA,3.87
18,EASNCFAIRHFENKFAVETLICPSSMVMWMRMTR,inactive
19,EASNCFAIRHFENKFAVETLICGLRRT,2.56
20,EASNCFAIRHFENKFAVETLICVFRSLISIPVAS,inactive
21,EASNCFAIRHFENKFAVETLICCGLVVMNGRSSA,9.04
22,EASNCFAIRHFENKFAVETLICVVIRDDRRTLSG,5.32
23,EASNCFAIRHFENKFAVETLICYDAWLWKDLTT,inactive
24,EASNCFAIRHFENKFAVETLICTSQH,2.22

row,Sequence,amyloid nucleation score
1,EASNCFAIRHFENKFAVETLICGRHRRYDFSETT,-0.585
2,EASNCFAIRHFENKFAVETLICAWGDRELVCSYQ,inactive
3,EASNCFAIRHFENKFAVETLICMRIKCQIMRARM,inactive
4,EASNCFAIRHFENKFAVETLICFDSSSYAGKVRR,3.95
5,EASNCFAIRHFENKFAVETLICCQTWMHKKKGTS,2.98
6,EASNCFAIRHFENKFAVETLICGRVKVVYGRRRG,inactive
7,EASNCFAIRHFENKFAVETLICVDVTMFGRVSNG,inactive
8,EASNCFAIRHFENKFAVETLICKPN,inactive
9,EASNCFAIRHFENKFAVETLICRYVDITKFRHSV,inactive
10,EASNCFAIRHFENKFAVETLICTCVL,inactive
11,EASNCFAIRHFENKFAVETLICDSGS,inactive
12,EASNCFAIRHFENKFAVETLICQLSLRGCVPVPG,inactive
13,EASNCFAIRHFENKFAVETLICRRSRVNW,inactive
14,EASNCFAIRHFENKFAVETLICFQRQGTLVRVSG,inactive
15,EASNCFAIRHFENKFAVETLICGRNCFQCNGFLG,5
16,EASNCFAIRHFENKFAVETLICWTRFQRCAVRLR,0.645
17,EASNCFAIRHFENKFAVETLICGANMTVRRVDGL,2.36
18,EASNCFAIRHFENKFAVETLICEFYCQNSSVILA,inactive
19,EASNCFAIRHFENKFAVETLICWPAGSMGNSRLS,3.11
20,EASNCFAIRHFENKFAVETLICCPNYCVKNCI,4.62
21,EASNCFAIRHFENKFAVETLICFNCRCFSDRQRV,8.5
22,EASNCFAIRHFENKFAVETLICKSYSYNKVFECA,inactive
23,EASNCFAIRHFENKFAVETLICFCVFRLKQCERR,inactive
24,EASNCFAIRHFENKFAVETLICVVMSRRDLNKSA,inactive

# Same assay, conditions: random library (experiment): 2
row,Sequence,amyloid nucleation score
1,EASNCFAIRHFENKFAVETLICPIWPH,inactive
2,EASNCFAIRHFENKFAVETLICDNYQS,inactive
3,EASNCFAIRHFENKFAVETLICWEGTYQPLTGLC,-1.34
4,EASNCFAIRHFENKFAVETLICGIVYFLHDWRCC,4.05
5,EASNCFAIRHFENKFAVETLICVALLICLWSLLV,5.01
6,EASNCFAIRHFENKFAVETLICLCRKFELFYRVW,-0.56
7,EASNCFAIRHFENKFAVETLICRDSTVMWGLRGT,2.45
8,EASNCFAIRHFENKFAVETLICKRGYAVLGRGRW,inactive
9,EASNCFAIRHFENKFAVETLICRLCEALSNVKLC,inactive
10,EASNCFAIRHFENKFAVETLICGWELGSASGKLR,inactive
11,EASNCFAIRHFENKFAVETLICAIRLYYGLGSQW,inactive
12,EASNCFAIRHFENKFAVETLICKAQC,-0.0488
13,EASNCFAIRHFENKFAVETLICYQLVSRRGQRAL,inactive
14,EASNCFAIRHFENKFAVETLICFHCFIISLLVRS,inactive
15,EASNCFAIRHFENKFAVETLICING,inactive
16,EASNCFAIRHFENKFAVETLICTRYLTHVFVTLC,inactive
17,EASNCFAIRHFENKFAVETLICCYVYGVLGVEGM,2.78
18,EASNCFAIRHFENKFAVETLICESMSVDSLWLLN,4.32
19,EASNCFAIRHFENKFAVETLICCTMWDRRSISCQ,inactive
20,EASNCFAIRHFENKFAVETLICVRKDNIEYCGWL,2.56
21,EASNCFAIRHFENKFAVETLICWKKGSCSYSNNL,2.33

row,Sequence,amyloid nucleation score
1,EASNCFAIRHFENKFAVETLICYICRT,4.66
2,EASNCFAIRHFENKFAVETLICLKWFVGSDICHR,inactive
3,EASNCFAIRHFENKFAVETLICCRVMNNVLLG,2.87
4,EASNCFAIRHFENKFAVETLICLVVMNNSMDILL,inactive
5,EASNCFAIRHFENKFAVETLICYSDYN,6.2
6,EASNCFAIRHFENKFAVETLICVIAVVGYVVCCV,5.22
7,EASNCFAIRHFENKFAVETLICYMYWAYRPARFR,inactive
8,EASNCFAIRHFENKFAVETLICEPSMLSVDDMFV,inactive
9,EASNCFAIRHFENKFAVETLICYSYVLSSTRNCP,2.3
10,EASNCFAIRHFENKFAVETLICKT,inactive
11,EASNCFAIRHFENKFAVETLICALCCTVLAYD,7.97
12,EASNCFAIRHFENKFAVETLICVRVSLSCMMCTH,7.88
13,EASNCFAIRHFENKFAVETLICYQYFNDDCVLRW,0.799
14,EASNCFAIRHFENKFAVETLICDNRKEFRTVKVR,inactive
15,EASNCFAIRHFENKFAVETLICVRTIWCTFLSSV,inactive
16,EASNCFAIRHFENKFAVETLICYSFCHRLYYLGV,inactive
17,EASNCFAIRHFENKFAVETLICDLYFSVSSVMGD,inactive
18,EASNCFAIRHFENKFAVETLICYSLCAKCYIWRN,inactive
19,EASNCFAIRHFENKFAVETLICGKKLCQDRSIGL,inactive
20,EASNCFAIRHFENKFAVETLICVHWYNHALRRGF,3.27

# Same assay, conditions: random library (experiment): 3
row,Sequence,amyloid nucleation score
1,EASNCFAIRHFENKFAVETLICNHRNPGNWSATG,inactive
2,EASNCFAIRHFENKFAVETLICTSAMLDHRWAYL,4.22
3,EASNCFAIRHFENKFAVETLICKTKGCCDGGVRH,3.12
4,EASNCFAIRHFENKFAVETLICVVRKRREPVRVM,inactive
5,EASNCFAIRHFENKFAVETLICMHVMSIFTVM,0.98
6,EASNCFAIRHFENKFAVETLICGYLYRSLECPDS,inactive
7,EASNCFAIRHFENKFAVETLICLSLLEFGGTFHG,7.73
8,EASNCFAIRHFENKFAVETLICCSLKDVSSGPTR,6.36
9,EASNCFAIRHFENKFAVETLICQFKVHCCASAHC,1.71
10,EASNCFAIRHFENKFAVETLICGPSPRAPLACLM,inactive
11,EASNCFAIRHFENKFAVETLICTKRERGKGSRGT,6.56
12,EASNCFAIRHFENKFAVETLICAAFASPVSAGST,1.43
13,EASNCFAIRHFENKFAVETLICLEEDYLSAHV,inactive
14,EASNCFAIRHFENKFAVETLICCDSIEVWRVPR,5.62
15,EASNCFAIRHFENKFAVETLICFLVNEANSFSLE,3.59
16,EASNCFAIRHFENKFAVETLICCDRYYWCASLVW,inactive
17,EASNCFAIRHFENKFAVETLICRTWT,inactive
18,EASNCFAIRHFENKFAVETLICVGSPWTYVRSEK,4.68
19,EASNCFAIRHFENKFAVETLICQLDARKWPEGCG,inactive
20,EASNCFAIRHFENKFAVETLICWFSVHADGKVSM,4.2
21,EASNCFAIRHFENKFAVETLICAVGRWAYIGGT,inactive
22,EASNCFAIRHFENKFAVETLICTMPLTARVWSG,0.739
23,EASNCFAIRHFENKFAVETLICGGSQEIMGRVTA,inactive
24,EASNCFAIRHFENKFAVETLICCLLHTKKEVWVL,inactive
25,EASNCFAIRHFENKFAVETLICRLCGECKSRSFR,-0.111
26,EASNCFAIRHFENKFAVETLICRRDMSTPFGEVS,inactive
27,EASNCFAIRHFENKFAVETLICELYFT,3.62
28,EASNCFAIRHFENKFAVETLICRVCVSNGKRCPA,inactive
29,EASNCFAIRHFENKFAVETLICRRELNLSMGASR,inactive
30,EASNCFAIRHFENKFAVETLICRVIMYVGGRGLE,inactive
